Laboratory results from PMC12497685, “Anticoronavirus Isoquinoline Alkaloids: Unraveling the Secrets of Their Structure–Activity Relationship” (Influenza and Other Respiratory Viruses, 2025).

Test system: HCoV‐229E
Assay: microbe, parasite or virus in culture
Type: cell-based
Conditions: Human coronavirus 229E, Huh-7, read-out: HCoV‐229E, EC50

SMILES	EC50
COc1cc2c3cc1Oc1c(OC)c(OC)cc4c1[C@@H](Cc1ccc(O)c(c1)Oc1ccc(cc1)C[C@@H]3N(C)CC2)N(C)CC4 [Compound 17, (+)‐berbamine]	5.11 ± 0.79 µM
COc1cc2c3cc1Oc1c(O)c(OC)cc4c1[C@@H](Cc1ccc(O)c(c1)Oc1ccc(cc1)C[C@@H]3N(C)CC2)N(C)CC4 [Compound 19, (+)‐obamegine]	8.07 ± 0.9 µM
